Data: PubChem BioAssay AID463254 (National Center for Advancing Translational Sciences (NCATS), 2010)
Out of some 330,000 compounds screened, about 40 (0.01%) were called active. Inconclusive results, whose numbers are uncertain, are shown with a selection of clear calls. The call rests on the fitted dose curve; in most records, active means well fitted inhibition curve with a large enough effect; inconclusive means small, poorly fitted or top-dose-only effect, or effect the other way; inactive means flat fitted curve, though single readings scatter. Potencies beside an inconclusive call are fits to weak or partial responses and may not hold up.

What follows are compounds tested against Ubiquitin carboxyl-terminal hydrolase 2 (Homo sapiens) (UniProt O75604) (assay: qHTS Assay for Inhibitors of Ubiquitin-specific Protease USP2a Using CHOP2 as the Reporter). Details: USP2 core, Ub-CHOP2 coupled fluorogenic reporter, 485/531; activity change, negative = inhibition: at 38.3 µM (top of the series).
Chain of UniProt O75604 (O75604 whole entry, looked up): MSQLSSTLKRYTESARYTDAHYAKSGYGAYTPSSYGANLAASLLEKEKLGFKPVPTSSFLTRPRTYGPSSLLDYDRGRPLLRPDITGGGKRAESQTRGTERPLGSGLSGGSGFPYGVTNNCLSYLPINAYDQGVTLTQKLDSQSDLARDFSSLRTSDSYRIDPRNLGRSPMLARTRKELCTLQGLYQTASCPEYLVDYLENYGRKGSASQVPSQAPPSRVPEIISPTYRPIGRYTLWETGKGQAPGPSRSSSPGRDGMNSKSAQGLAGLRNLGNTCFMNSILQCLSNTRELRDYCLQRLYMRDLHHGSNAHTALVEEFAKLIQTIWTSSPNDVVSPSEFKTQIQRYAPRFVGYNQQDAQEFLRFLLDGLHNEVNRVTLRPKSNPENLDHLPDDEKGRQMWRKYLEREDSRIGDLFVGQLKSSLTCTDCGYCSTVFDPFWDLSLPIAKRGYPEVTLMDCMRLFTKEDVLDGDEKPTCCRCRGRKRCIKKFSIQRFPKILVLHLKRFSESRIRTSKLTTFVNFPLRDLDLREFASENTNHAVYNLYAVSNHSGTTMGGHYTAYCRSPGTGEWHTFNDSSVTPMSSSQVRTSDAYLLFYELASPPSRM
Summary of the method: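 Cell-free coupled assay: 10nM USP2 core preincubated 30min RT with compound in Tris-HCl pH 8.0/CaCl2/CHAPS buffer, then 25nM Ub-CHOP2 and 25nM reporter substrate; fluorescence (Ex 485/Em 531) read after 60min RT, normalized to NEM inhibition, concentration-response curves fitted.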
Potency means the concentration at half of the fitted maximal effect; tags describe the fitted curve by direction and shape or compound fluorescence and quenching.
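Wherever activity change, negative = inhibition is given: plate controls were DMSO wells for no effect and full inhibition by NEM control for full effect.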

Activity change, negative = inhibition, inactive:
O=C(CCc1ccccc1)Nc1ccccc1[N+](=O)[O-] 0.595%
COc1ccc(Nc2cc(C)nc3ccc(OC)cc23)cc1 -4.28%
Cn1c(CSCc2ccc(Cl)cc2)nnc1SCC(=O)Nc1nccs1 2.49%
Cc1ccc2[nH]c(-c3cccc(N)c3)cc2c1 1.87%
CCc1c(C)nc(SCC(=O)Nc2nc(-c3ccc(OC)cc3)cs2)[nH]c1=O -0.625%
CN1CCc2c(sc3c2C(=O)NC(c2ccccc2)N3)C1 (stereo unspecified) 12.3%
CC(C)CC(COCc1ccc(C(F)(F)F)cc1)N1CCN(C(=O)c2ccc(C(F)(F)F)cc2)CCC1=O (stereo unspecified) -9.02%
CC(=O)N1CCN(C(=S)c2ccc(N(C)C)cc2)CC1 4.17%
CCCOc1ccc(/C=C/c2[nH]c(=O)[nH]c(=O)c2[N+](=O)[O-])cc1OCC 7.12%
Cc1noc(NS(=O)(=O)c2ccc(NC(=O)c3ccccc3NS(=O)(=O)c3ccc(F)cc3)cc2)c1C 2.52%
CC(=O)N(CCCN1CCOCC1)Cc1ccncc1 -0.666%
CN(C)C(=O)CSc1cccc2cccnc12 1.86%
O=[N+]([O-])c1ccccc1-c1ccc(/C=N/n2cnnc2)o1 0.306%
O=C(CSc1nnc(-c2cccnc2)o1)Nc1nccs1 1.07%
Cc1ccc(NC(=S)N(CCN(C)C)Cc2cccs2)c(C)c1 -0.19%
CC(C)CN(C(=O)COC(=O)CSc1ccc([N+](=O)[O-])cc1)C1CCS(=O)(=O)C1 (stereo unspecified) 0.33%
CC1=C/C(=C\c2ccc(Br)o2)C(=O)O1 4.77%
CCCCNC(=O)COC(=O)c1c2c(nc3ccccc13)/C(=C/c1cccs1)CC2 5.95%
CC(C)c1ccc(NC(=O)NC2(C(=O)NCc3cccnc3)CCCCC2)cc1 0.374%
COc1cc2c(cc1OC)/C(=C/C(=O)N1CCOCC1)NC(C)(C)C2 -1.77%
CCOC(=O)c1cc(=O)n2c(nc3ccccc32)[nH]1 -1.38%
CCC1CN(C(=O)NCc2ccc(C)cc2)c2cc(Cl)ccc2O1 (stereo unspecified) -5.57%
O=C(CNc1ccc(C(F)(F)F)cc1)Nc1cccc(S(=O)(=O)N2CCCC2)c1 0.317%
O=C(Nc1nc2ccc(S(=O)(=O)N3CCCC3)cc2s1)c1ccccn1 5.4%

Potency, inconclusive:
O=C(CCN1C(=O)/C(=C\c2ccco2)SC1=S)Nc1ccc(C(=O)O)c(O)c1 22.4 µM [falling, single point]
N#Cc1c(NC(=O)CSc2ncnc3sccc23)oc(-c2ccco2)c1-c1ccco1 20 µM [falling, single point]
CC(/C=N/NC(=O)c1cc(-c2cccs2)[nH]n1)=C\c1ccccc1 28.2 µM [falling, single point]
CSCC[C@H](NC(=O)C1CCN(S(=O)(=O)c2ccc(C)cc2)CC1)C(=O)NCc1ccco1 28.2 µM [falling, single point]
Cc1ccc(NC(=O)CSc2nnc(COc3ccc(C#N)cc3)n2-c2ccccc2)cc1C 22.4 µM [falling, single point]
CCOc1cccc(NC(=O)/C(C#N)=C\c2cn(CC(=O)O)c3ccccc23)c1 20 µM [falling, single point]
CCCCn1c(=O)[nH]c2nc3cc(N)ccc3nc2c1=O 11.2 µM [fluorescent, partial curve]
CCOCCCn1c(=N)c(S(=O)(=O)c2ccccc2)cc2c(=O)n3cc(C)ccc3nc21 11.2 µM [fluorescent, single point]
O=C(NCc1cccc(C(F)(F)F)c1)c1cccc2c1C(=O)c1ccc(N3CCC(Cc4ccccc4)CC3)cc1S2(=O)=O 11.2 µM [fluorescent, partial curve]
CCOC(=O)C1CCCN(CC(=O)Nc2c(C(=O)OC)[nH]c3ccc(C)cc23)C1 (stereo unspecified) 28.2 µM [falling, single point]
COC(=O)c1[nH]c2ccc(C)cc2c1NC(=O)CN1CCCc2ccccc21 22.4 µM [falling, single point]
CCN(CC)CCCC(C)Nc1c2ccc(Cl)cc2nc2ccc(OC)cc12 (stereo unspecified) 10 µM [fluorescent, partial curve]
COC(=O)N/N=C\c1cc(Br)ccc1OCc1ccccc1 3.55 µM [falling, single point]
COc1cc(/C=N/NC(=O)c2cc(-c3ccccc3)nc3ccccc23)ccc1O 12.6 µM [falling, single point]
CCC1=NNc2cccc3c(OC)ccc1c23 28.2 µM [falling, single point]
N#CCc1ccc(NC(=O)/C=C/c2ccc([N+](=O)[O-])o2)cc1 28.2 µM [falling, single point]
CC1CCCC(NC(=O)C2N(CCCN3CCCC3)C(=O)C3C(C(=O)Nc4ccc(Cl)cc4)C4C=CC32O4)C1C (stereo unspecified) 28.2 µM [falling, single point]
O=C(Nc1cccc(-c2nn[nH]n2)c1)c1ccc(Br)s1 20 µM [falling, single point]
COC(=O)c1cc(N2CCN(C)CC2)nc2ccccc12 12.6 µM [fluorescent, single point]
CCCCCCCCCCCCCCCC[n+]1cccc2ccccc21 28.2 µM [falling, single point]
Nc1c(C(=O)Nc2ccc(Cl)cc2)oc2ccccc12 28.2 µM [falling, single point]
COc1ccc(NC(=O)/C(C#N)=C\c2ccc(N3CCOCC3)o2)cc1 11.2 µM [fluorescent, partial curve]
CCN(CC(=O)Nc1ccc(NC(C)=O)cc1)C(=O)c1ccc(N2CCC(C)CC2)c([N+](=O)[O-])c1 25.1 µM [falling, single point]
O=C(CSc1nc(O)cc(=O)n1-c1ccccc1)NC1CCCCC1 28.2 µM [falling, single point]
Nc1cc(=O)[nH]c(SCc2cccc(Cl)c2)n1 28.2 µM [falling, single point]
C/C(=N/NC(=O)c1ccncc1)c1cc2ccc(O)cc2oc1=O 22.4 µM [fluorescent, partial curve]
N#C/C(=C(/O)CSc1nnc(Cc2cccs2)n1C1CCCCC1)c1nc2ccccc2[nH]1 15.8 µM [falling, single point]
COCCCn1c2nc3ccccc3nc2c2c(=O)n(Cc3ccc(Cl)cc3)c(C)nc21 28.2 µM [falling, single point]
CC1=C(C(=O)Nc2ccccc2)C(c2ccc[nH]2)n2ncnc2N1 (stereo unspecified) 25.1 µM [falling, single point]
N#C/C(=C/c1ccc(N2CCOCC2)o1)C(=O)Nc1ccccc1 11.2 µM [fluorescent, partial curve]
O=C(Nc1cccc(S(=O)(=O)N2CCCC2)c1)c1cncc(Br)c1 28.2 µM [falling, single point]
CCOc1ccc2[nH]c(=O)c(CN(CCc3ccccc3)C(=O)c3cnccn3)cc2c1 0.501 µM [falling, full curve]
Cc1ccc(S(=O)(=O)Nc2cc(C)c(O)c(S(=O)(=O)c3ccc(C)cc3)c2)cc1 28.2 µM [falling, single point]
Cc1ccc(C)n1-c1cccc(C(=O)O)c1 22.4 µM [falling, single point]
CCCCCCCCCCOC(=O)Cn1c(COc2ccc(C)cc2)[n+](C)c2ccccc21 28.2 µM [falling, single point]
CCN1CCc2c(sc(NC(=O)c3ccc4ccccc4c3)c2C(N)=O)C1 22.4 µM [fluorescent, single point]
CC(=O)[C@H]1[C@H](c2cccc(Cl)c2)C(C#N)(C#N)[C@@H]2c3ccccc3C=CN21 5.01 µM [falling, single point]
CCC(C)(C(=O)NC1CCCCC1)N(C(=O)C1CCC(=O)N1)c1ccccc1 (stereo unspecified) 22.4 µM [falling, single point]
CCOC(=O)C1CCN(CC(O)COc2ccc(C(C)(C)C)cc2)CC1 (stereo unspecified) 28.2 µM [falling, single point]
COC(=O)c1ccc(CSc2ncnc3ccccc23)o1 22.4 µM [falling, single point]
COc1ccc(-c2cc(C(F)(F)F)nc(S(C)(=O)=O)n2)cc1 28.2 µM [falling, single point]
CCc1cc(=O)oc2cc(C)c(CN3CCCC3)c(O)c12 20 µM [falling, single point]
COc1cccc(C(=O)NCc2ccc3[nH]c(C)cc3c2)c1 11.2 µM [falling, single point]
Cc1ccc(C(=O)Nc2nnc(CC(=O)N/N=C/c3ccc(O)c(O)c3)s2)cc1 20 µM [falling, single point]
O=C1Nc2ccccc2/C1=C/c1cnc(-c2ccccc2)[nH]1 12.6 µM [fluorescent, partial curve]
C#CCOCCOCCOCCNc1nc(N2CCN(C(=O)CCCCCCCCCCNC(=O)[C@H]([C@@H](C)CC)n3cc(CCCCN=C(N)N)nn3)CC2)nc(N2CCN(C(=O)CCCCCCCCCCNC(=O)[C@H]([C@@H](C)CC)n3cc(CCCCN=C(N)N)nn3)CC2)n1 20 µM [falling, single point]

Potency, active:
CCCCCCCCCCCCCCCC[N+](C)(C)CCN(Cc1ccc(OC)cc1)c1ncccn1 10 µM
